Common to all, as to test: split reporter; split luciferase complementation imaging (LCI): nLUC and cLUC fusions co-infiltrated by Agrobacterium GV3101 into N. benthamiana leaves, expressed 48 h, signal read by CCD
One experiment addresses GUS-cLUC (UniProt P05804).
In another experiment the target is T1, ZIP2-cLUC (Arabidopsis) (UniProt Q9LTH9).
T1 sequence: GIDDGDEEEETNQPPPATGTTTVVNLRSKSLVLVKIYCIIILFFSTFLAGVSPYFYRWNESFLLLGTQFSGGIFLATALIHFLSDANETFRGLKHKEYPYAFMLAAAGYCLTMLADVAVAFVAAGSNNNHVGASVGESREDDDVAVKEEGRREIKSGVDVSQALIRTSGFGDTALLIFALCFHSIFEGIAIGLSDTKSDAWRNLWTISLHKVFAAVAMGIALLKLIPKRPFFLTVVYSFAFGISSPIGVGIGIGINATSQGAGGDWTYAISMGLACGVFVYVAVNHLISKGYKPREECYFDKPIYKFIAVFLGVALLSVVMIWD

For the next experiment, the target named is T2, ZIP5-cLUC (Arabidopsis) (UniProt O23039).
T2 sequence: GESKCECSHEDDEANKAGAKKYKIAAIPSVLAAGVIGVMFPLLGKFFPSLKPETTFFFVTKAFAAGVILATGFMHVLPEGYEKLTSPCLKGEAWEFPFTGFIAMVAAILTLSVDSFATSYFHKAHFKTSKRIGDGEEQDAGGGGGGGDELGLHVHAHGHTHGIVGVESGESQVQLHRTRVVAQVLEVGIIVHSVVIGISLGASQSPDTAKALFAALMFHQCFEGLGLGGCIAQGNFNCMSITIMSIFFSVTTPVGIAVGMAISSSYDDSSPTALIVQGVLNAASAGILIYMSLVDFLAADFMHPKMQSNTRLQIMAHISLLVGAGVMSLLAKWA

The target in a further experiment is GUS-cLUC, P05804. As to conditions: remark: other sources report otherwise.

The results in this text go back to PMC12756210.

Results are given in words; binding and its absence hold for the method and conditions named. Binding seen in cells or lysates may run through a third protein. Some binding calls cover weakened binding; strength is not graded here. Where a sequence is shown, tags or fusion partners need not be part of it.

B1: CIPK26-nLUC (protein, UniProt Q84VQ3 1-439)
chain: MNRPKVQRRVGKYEVGKTLGQGTFAKVRCAVNTETGERVALKILDKEKVLKHKMAEQIRREICTMKLINHPNVVRLYEVLASKTKIYIVLEFGTGGELFDKIVHDGRLKEENARKYFQQLINAVDYCHSRGVYHRDLKPENLLLDAQGNLKVSDFGLSALSRQVRGDGLLHTACGTPNYAAPEVLNDQGYDGATADLWSCGVILFVLLAGYLPFEDSNLMTLYKKIIAGEYHCPPWLSPGAKNLIVRILDPNPMTRITIPEVLGDAWFKKNYKPAVFEEKEEANLDDVDAVFKDSEEHHVTEKKEEQPTSMNAFELISMSRALDLGNLFEEEEGFKRETRFAAKGAANDLVQKIEEASKPLGFDIQKKNYKMRLENVTAGRKGNLRVATEIFQVSPSLHMIEVRKTKGDTLEFHKFYKKLSTSLNDVVWKSGESSGLSK
Regarding B1, the binding entry with GUS-cLUC is reported as “no binding”; with ZIP2-cLUC (Arabidopsis) it was “binds”; with ZIP5-cLUC (Arabidopsis), “no binding”.

B2: GUS-nLUC, P05804 1-603 (protein)
chain: MLRPVETPTREIKKLDGLWAFSLDRENCGIDQRWWESALQESRAIAVPGSFNDQFADADIRNYAGNVWYQREVFIPKGWAGQRIVLRFDAVTHYGKVWVNNQEVMEHQGGYTPFEADVTPYVIAGKSVRITVCVNNELNWQTIPPGMVITDENGKKKQSYFHDFFNYAGIHRSVMLYTTPNTWVDDITVVTHVAQDCNHASVDWQVVANGDVSVELRDADQQVVATGQGTSGTLQVVNPHLWQPGEGYLYELCVTAKSQTECDIYPLRVGIRSVAVKGEQFLINHKPFYFTGFGRHEDADLRGKGFDNVLMVHDHALMDWIGANSYRTSHYPYAEEMLDWADEHGIVVIDETAAVGFNLSLGIGFEAGNKPKELYSEEAVNGETQQAHLQAIKELIARDKNHPSVVMWSIANEPDTRPQGAREYFAPLAEATRKLDPTRPITCVNVMFCDAHTDTISDLFDVLCLNRYYGWYVQSGDLETAEKVLEKELLAWQEKLHQPIIITEYGVDTLAGLHSMYTDMWSEEYQCAWLDMYHRVFDRVSAVVGEQVWNFADFATSQGILRVGGNKKGIFTRDRKPKSAAFLLQKRWTGMNFGEKPQQGGKQ
As to B2, the binding entry with GUS-cLUC, P05804 is “no binding”.
